Reference: PMC10516938, “Conformational dynamics of cohesin/Scc2 loading complex are regulated by Smc3 acetylation and ATP binding” (Nature Communications, 2023)
No constants are given. Whether binding was seen depends on the method and setting. In cells and extracts the contact can be indirect. Some results given as binding are weak or reduced against the parent protein; the word gives no strength.

Legend:
[1] = molecular target: T1, Smc1 E1102C (S. cerevisiae) (UniProt P32908); assay: cross-linking; in vivo BMOE cross-link of cysteine pairs in exponentially grown yeast cells (on ice, 6 min); Scc1-PK immunoprecipitated, western blot
T1 sequence: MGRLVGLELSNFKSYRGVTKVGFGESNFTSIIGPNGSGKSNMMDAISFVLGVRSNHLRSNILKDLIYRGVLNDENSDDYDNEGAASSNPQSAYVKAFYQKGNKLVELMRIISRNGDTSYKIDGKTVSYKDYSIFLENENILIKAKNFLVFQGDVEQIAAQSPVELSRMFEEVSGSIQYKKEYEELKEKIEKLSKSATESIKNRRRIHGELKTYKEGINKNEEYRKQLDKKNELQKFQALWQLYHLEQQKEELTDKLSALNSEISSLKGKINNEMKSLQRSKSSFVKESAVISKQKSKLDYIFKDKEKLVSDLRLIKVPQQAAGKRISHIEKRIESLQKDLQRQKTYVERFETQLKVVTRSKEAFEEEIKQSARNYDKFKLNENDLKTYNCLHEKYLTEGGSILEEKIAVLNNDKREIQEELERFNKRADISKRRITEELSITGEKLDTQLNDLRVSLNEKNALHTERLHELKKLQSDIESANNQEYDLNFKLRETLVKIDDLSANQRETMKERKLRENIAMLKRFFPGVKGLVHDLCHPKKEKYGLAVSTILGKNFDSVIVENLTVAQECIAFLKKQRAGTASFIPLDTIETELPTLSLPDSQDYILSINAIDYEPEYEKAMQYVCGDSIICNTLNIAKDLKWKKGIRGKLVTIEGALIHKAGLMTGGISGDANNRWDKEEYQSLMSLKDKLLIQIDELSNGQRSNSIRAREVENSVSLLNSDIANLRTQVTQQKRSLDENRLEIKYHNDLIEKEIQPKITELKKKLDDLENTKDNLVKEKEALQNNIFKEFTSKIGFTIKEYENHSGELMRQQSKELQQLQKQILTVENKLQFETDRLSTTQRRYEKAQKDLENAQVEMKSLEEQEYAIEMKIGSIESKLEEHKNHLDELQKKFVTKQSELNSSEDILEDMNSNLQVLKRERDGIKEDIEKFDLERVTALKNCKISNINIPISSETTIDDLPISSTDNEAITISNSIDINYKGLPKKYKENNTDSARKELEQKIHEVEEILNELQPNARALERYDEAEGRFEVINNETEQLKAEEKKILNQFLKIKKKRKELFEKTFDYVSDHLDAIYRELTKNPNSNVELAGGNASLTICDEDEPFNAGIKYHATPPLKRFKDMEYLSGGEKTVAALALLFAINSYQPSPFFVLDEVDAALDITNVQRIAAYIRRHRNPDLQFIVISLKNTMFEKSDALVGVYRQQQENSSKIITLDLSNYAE

[2] = molecular target: T2, Smc3 Q67C (S. cerevisiae) (UniProt P47037); assay: as above
T2 sequence: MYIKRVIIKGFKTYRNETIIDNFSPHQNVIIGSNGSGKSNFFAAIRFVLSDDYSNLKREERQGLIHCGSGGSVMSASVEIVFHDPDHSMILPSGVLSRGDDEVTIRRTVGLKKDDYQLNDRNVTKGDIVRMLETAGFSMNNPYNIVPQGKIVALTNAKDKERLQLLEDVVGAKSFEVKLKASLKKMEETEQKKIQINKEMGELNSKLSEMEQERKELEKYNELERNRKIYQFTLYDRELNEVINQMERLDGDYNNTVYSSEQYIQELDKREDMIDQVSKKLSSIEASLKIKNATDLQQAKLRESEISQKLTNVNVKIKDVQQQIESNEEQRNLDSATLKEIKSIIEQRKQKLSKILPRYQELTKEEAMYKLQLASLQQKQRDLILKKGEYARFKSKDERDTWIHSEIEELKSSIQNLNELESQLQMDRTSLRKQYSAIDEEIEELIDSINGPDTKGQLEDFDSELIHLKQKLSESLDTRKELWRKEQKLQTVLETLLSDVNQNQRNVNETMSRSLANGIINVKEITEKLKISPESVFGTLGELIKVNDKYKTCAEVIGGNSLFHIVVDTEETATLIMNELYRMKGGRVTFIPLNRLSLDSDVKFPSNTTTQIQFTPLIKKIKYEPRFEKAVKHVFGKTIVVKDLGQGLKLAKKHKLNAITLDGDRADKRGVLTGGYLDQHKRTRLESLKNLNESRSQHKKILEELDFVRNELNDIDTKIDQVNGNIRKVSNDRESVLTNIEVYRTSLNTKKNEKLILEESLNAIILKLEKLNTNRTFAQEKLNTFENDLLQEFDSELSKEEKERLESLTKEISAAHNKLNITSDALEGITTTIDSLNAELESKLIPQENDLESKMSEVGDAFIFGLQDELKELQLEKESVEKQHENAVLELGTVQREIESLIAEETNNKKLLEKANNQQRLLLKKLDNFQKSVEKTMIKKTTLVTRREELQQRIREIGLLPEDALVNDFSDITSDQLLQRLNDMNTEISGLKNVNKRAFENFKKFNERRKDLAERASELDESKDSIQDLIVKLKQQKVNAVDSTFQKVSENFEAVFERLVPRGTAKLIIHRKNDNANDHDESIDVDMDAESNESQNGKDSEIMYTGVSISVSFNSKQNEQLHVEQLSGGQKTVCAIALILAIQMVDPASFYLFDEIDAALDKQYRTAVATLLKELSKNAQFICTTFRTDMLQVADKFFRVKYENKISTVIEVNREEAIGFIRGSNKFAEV

[3] = molecular target: T3, Scc1-PK (S. cerevisiae) (UniProt Q12158); assay: co-IP; Scc1-PK immunoprecipitated with anti-PK from whole-cell extracts of cross-linker-treated yeast cells (exponentially grown or late G1 arrested); co-precipitated Smc3-HA, Smc1-Myc or Scc2-FLAG detected by western blot
T3 sequence: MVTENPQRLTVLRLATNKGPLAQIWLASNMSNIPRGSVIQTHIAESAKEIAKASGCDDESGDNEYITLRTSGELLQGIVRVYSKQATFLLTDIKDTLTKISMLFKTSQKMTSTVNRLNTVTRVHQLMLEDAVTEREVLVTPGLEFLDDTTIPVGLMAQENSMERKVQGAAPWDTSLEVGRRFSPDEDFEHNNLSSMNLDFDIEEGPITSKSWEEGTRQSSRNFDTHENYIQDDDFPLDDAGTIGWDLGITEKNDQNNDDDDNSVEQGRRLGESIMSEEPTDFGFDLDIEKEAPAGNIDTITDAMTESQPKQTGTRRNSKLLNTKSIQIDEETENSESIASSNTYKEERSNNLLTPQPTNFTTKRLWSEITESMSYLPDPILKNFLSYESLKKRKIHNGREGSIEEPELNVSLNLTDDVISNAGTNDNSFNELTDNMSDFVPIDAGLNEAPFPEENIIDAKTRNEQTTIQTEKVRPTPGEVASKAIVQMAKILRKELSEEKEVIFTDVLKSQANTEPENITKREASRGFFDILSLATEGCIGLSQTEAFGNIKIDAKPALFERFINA

binding [1]: binds | binding [2]: binds | binding [3]: binds
B1: Scc2 T1175C T1281C (protein, UniProt Q04002 1-1493)
chain: MSYPGKDKNIPGRIIEALEDLPLSYLVPKDGLAALVNAPMRVSLPFDKTIFTSADDGRDVNINVLGTANSTTSSIKNEAEKERLVFKRPSNFTSSANSVDYVPTNFLEGLSPLAQSVLSTHKGLNDSINIEKKSEIVSRPEAKHKLESVTSNAGNLSFNDNSSNKKTKTSTGVTMTQANLAEQYLNDLKNILDIVGFDQNSAEIGNIEYWLQLPNKKFVLTTNCLTKLQMTIKNITDNPQLSNSIEITWLLRLLDVMVCNIKFSKSSLKMGLDDSMLRYIALLSTIVLFNIFLLGKNDSNLHRESYIMEPVNFLSDLIESLKILTIEYGSLKIEFDTFQEALELLPKYIRNGPFLDDNVTAKLVYIFSDLLMNNDIEATTNIQFQSFWDNVKRISSDILVSLFGSFDQQRGFIIEELLSHIEKLPTKRIQKKLRKVGNQNIYITDFTFTLMSMLENINCYSFCNQMKDIAPENIDLLKNEYKKQEEFLFNIVEHINDTILERFFKNPSALRYVIDNFVQDLLLLISSPQWPVTEKILSSLLKRLLSVYSPSMQVSANIETICLQLIGNIGSTIFDIKCSTRDHEDNNLIKMINYPETLPHFFKSFEECIAYNETIKCRRSATRFLWNLRLGTILILEEYTKDAKEQIITVDNELKKILEQIKDGGLGPELENREADFSTIKLDYFSILHAFELLNLYDPYLKLILSLLAKDKIKLRSTAIKCLSMLASKDKVILSNPMVKETIHRRLNDSSASVKDAILDLVSINSSYFEFYQQINNNYNDDSIMVRKHVLRINEKMYDETNDIVTKVYVIARILMKIEDEEDNIIDMARLILLNRWILKVHEVLDQPEKLKEISSSVLLVMSRVAIMNEKCSQLFDLFLNFYLLNKEAHSKEAYDKITHVLTILTDFLVQKIVELNSDDTNEKNSIVDKQNFLNLLAKFADSTVSFLTKDHITALYPYMVSDEKSDFHYYILQVFRCTFEKLANFKQKFLYDLETTLLSRLPKMNVREIDEAMPLIWSVATHRHDTARVAKACSSCLSHLHPYINKANNEEAAIVVDGKLQRLIYLSTGFARFCFPKPSNDKIAFLQEGETLYEHITKCLLVLSKDKITHVIRRVAVKNLTKLCGNHPKLFNSRHVLHLLDKEFQSDQLDIKLVILESLYDLFLLEERKSVRNCGVNSTLSSNSILKKKLLKTNRVEFANDGVCSALATRFLDNILQLCLLRDLKNSLVAIRLLKLILKFGYTNPSHSIPTVIALFASTSQYIRHVAYELLEDLFEKYECLVFSSLSRGVTKAIHYSIHTDEKYYYKHDHFLSLLEKLCGTGKKNGPKFFKVLKRIMQSYLDDITDLTSTNSSVQKSIFVLCTNISNITFVSQYDLVSLLKTIDLTTDRLKEVIMDEIGDNVSSLSVSEEKLSGIILIQLSLQDLGTYLLHLYGLRDDVLLLDIVEESELKNKQLPAKKPDISKFSAQLENIEQYSSNGKLLTYFRKHVKDT
